Reference: the supplement of paper PMC3334620
In all, about 33,000 sequences were measured (“E-score (-0.5 to 0.5)”: median about -0.04, highest 2% from about 0.36 on). The list shows a part of the results.

Biological target: T1, Hmlalpha2 (UniProt P0CY09)
T1 sequence: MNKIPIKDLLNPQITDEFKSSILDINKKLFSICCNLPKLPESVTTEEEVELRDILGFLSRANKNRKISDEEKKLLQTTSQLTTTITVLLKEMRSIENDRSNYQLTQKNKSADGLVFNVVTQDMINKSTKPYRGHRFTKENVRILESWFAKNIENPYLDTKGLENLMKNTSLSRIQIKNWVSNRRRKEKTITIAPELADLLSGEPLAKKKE
Experiment: PBM E-score (8-mer binding enrichment) (E-score (-0.5 to 0.5)); higher = stronger / more preferred TF binding; most listed sequences are background and not binding sites
Conditions: protein concentration: 200 nM; construct: GST-full length
In short: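 GST-tagged yeast TFs (full-length or DNA-binding domain) were made by PURExpress in vitro transcription/translation and applied at about 100-200 nM to universal all-10-mer Agilent arrays. The arrays were made double-stranded by primer extension, on fresh or once-stripped slides. Bound protein was detected with fluorescent anti-GST, and scans were normalised with masliner. Each ungapped eight-base word, pooled with its reverse complement, received an E-score (modified Wilcoxon-Mann-Whitney statistic) from the Universal PBM Analysis Suite.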

Row | Sequence | PBM E-score
1 | AATTCTTA | 0.0503
2 | CCCGGGAA | -0.178
3 | CCATCGTA | 0.2
4 | ATTCGGGA | -0.169
5 | GACAGACA | 0.00195
6 | AACATGTC | 0.333
7 | CGACAACG | 0.11
8 | AACTGCGG | -0.197
9 | ATTAACGA | 0.317
10 | AATAGAGG | -0.15
11 | CCGCCGAG | -0.232
12 | AAGTTTGG | 0.0347
13 | ATCTTACG | 0.15
14 | GTGTGTCA | 0.307
15 | ATTTCGGA | -0.00238
16 | GGGTTTGA | -0.0684
17 | GGACACGA | 0.0799
18 | CATCAGAA | 0.0899
19 | GAAACCCC | -0.15
20 | AGGGCTGC | -0.234
21 | CAGTCCTA | -0.0557
22 | GAGTTGAC | 0.122
23 | GAGCCAAC | 0.0802
24 | CAGCGATG | -0.139

Row | Sequence | PBM E-score
25 | ACCGGACT | -0.286
26 | CGCTTCCG | -0.144
27 | AACTAGGC | -0.0208
28 | AGCAAGAA | -0.0357
29 | AGTTCCCG | -0.212
30 | GTCTGCAC | -0.113
31 | AGCTTAAG | -0.0389
32 | CTTTGCTC | -0.0327
33 | ATGGCCTG | -0.129
34 | AAAGAGCC | -0.253
35 | TAGCTGAA | 0.0114
36 | TACACTAA | 0.22
37 | ACCGCCCC | -0.149
38 | ACATCACG | 0.208
39 | ATGAGATG | -0.0219
40 | ACGGTCCA | -0.184
41 | CCCCGCTC | -0.429
42 | CGATCAAC | 0.083
43 | GCTATATA | 0.0986
44 | CCGCCAGC | -0.325
45 | GGAAGAGA | -0.182
46 | GAACGTCA | -0.0932
47 | CGGTATTA | -0.025
48 | ACAGATGG | -0.115

Row | Sequence | PBM E-score
49 | ATGGTCGA | -0.0159
50 | AGGATGAC | -0.108
51 | ACACGTGT | 0.432
52 | GGAGACTA | -0.152
53 | ATTTCATG | 0.05
54 | GATATGGC | -0.467
55 | AGACAGAA | -0.13
56 | CTGTTGGA | -0.0729
57 | CAGAAGGC | -0.288
58 | CGAAATGA | -0.0152
59 | CCGGGAGG | -0.273
60 | ATTGAGTA | 0.3
61 | ATATCGCA | -0.168
62 | AAGGACCA | -0.191
63 | AGCGGGAT | -0.231
64 | CTCCCTAC | -0.0396
65 | GGGCGCAC | -0.242
66 | GAACCGAC | -0.0907
67 | CGGATAAC | 0.19
68 | CAGTATCC | -0.0503
69 | AATATTAC | 0.381
70 | ACTCTGGC | -0.373
71 | ATAAAATG | 0.116
72 | CGTGGTCA | 0.00964

Row | Sequence | PBM E-score
73 | AGCGTCAA | 0.077
74 | GCGCGTTA | 0.372
75 | AGAGTCAT | -0.112
76 | ATTGACGC | 0.122
77 | ACTTCGAA | 0.055
78 | TAAGGGGA | 0.00312
79 | ACCCCCAC | -0.262
80 | ATAACAAT | 0.241
81 | ATCATCGG | -0.188
82 | CCACAGAA | -0.00055
83 | GAAAACGC | 0.163
84 | ATTGGGTA | -0.103
85 | AACACGAT | 0.439
86 | AATCGCAC | -0.0358
87 | ATTTATTC | 0.0902
88 | GGTACATA | 0.141
89 | GATCGATA | -0.0666
90 | ACTAGAAC | 0.0152
91 | CTCATAGC | -0.224
92 | ACTTGCCA | -0.0087
93 | GAATTTTA | 0.166
94 | AGGGGGAT | -0.172
